Consider 14 molecules from article PMC12136788.

Some of the results follow.

The labels stand for the following.
B1: chr7:13615833:13615834:+_ENSMUSG00000005566_ENSMUST00000005705|mus_mus|FALSE|FALSE (ssRNA)
RNA: GGGAGUUCUACAGUCCGACGAUCCUUGUUGAACUGUUUGAACAUGCGGCCCACAUCUUGAGCAAACUCCUGGGGGGAGCUAUAAGGAGGUGACAGCUUCUCUUGGAGGCGAGCACGAAUCAAGGUCAGGUCUAGGGUACCACCCAACAGAGGAUUGAGCAUCA
B2: 146275045_146276268_750_CDS_ENSMUSG00000037110_ENSMUST00000109986|mouse|control|control (ssRNA)
RNA: GGGAGUUCUACAGUCCGACGAUCAUCUUGAUUCUCUUUAUUCUUCCACUCCAAGCUUGCAGCCUGAAUAACCAUGUAUUUCAACAGUAUUUGAAGAAAAAAGCAGGUUUGGUCCUCAGCAAUCUUCUCCCCUGAUAUGGCUGGCAACAGAGGAUUGAGCAUCA
B3: chr7:29966231:29966232:-_ENSG00000136193_ENST00000242059|hu_hu|FALSE|FALSE (ssRNA)
RNA: GGGAGUUCUACAGUCCGACGAUCCCCAAAACAGGGAGACUGUGUUUUGGGGACAAGUUUUACGUCAUCAACAAAGAUGAAAGGCUUGAAUAUGGACCUGGAAGGAUCAGGGGUUCCAGUGAAGUAGUGAAUGCACGGAGAGCUCAACAGAGGAUUGAGCAUCA
B4: chr10:5892124:5892125:-_ENSMUSG00000061759_ENSMUST00000095893|mus_mus|motif|central (ssRNA)
RNA: GGGAGUUCUACAGUCCGACGAUCUUCAUUAAAACUACUUGAAAGUUUUGCAUUUAACUUAGAAUAGUGACAGAAGUAUAACGGGCUUAAACCCAAACCAAUGCAGCGGGGCAAACCAUUCCAAGGAAGCCUCGUCUACUGUACCAACAGAGGAUUGAGCAUCA
B5: 33921043_33925325_607_CDS_ENSG00000006125_ENST00000262325|human|control|control (ssRNA)
RNA: GGGAGUUCUACAGUCCGACGAUCAAUCACUUUCUUCACAGCCUCCUUUCUCUUUUCUUUCUUUUCAUUGUUGAGUUCAGCUUUUAGUUCAAAUAUUUCUCCUUUUUUAUUGGUUGUGAAAUACUUGGAGUCAGUCAUGACUUUCAACAGAGGAUUGAGCAUCA
B6: chr2:179515052:179515053:+_ENSMUSG00000000305_ENSMUST00000000314|mus_hu|mus_mus_mus_hu_False|98_98 (ssRNA)
RNA: GGGAGUUCUACAGUCCGACGAUCGCUGUCCCAUGCAGUGACGGUAAACGCCACCUGCUCGGAGGGGACCUGCAGCUCCCGGGUGGCGAAGACUGUCCCAUCUGCCCCAACUUUGAAGUCCAUGCUGUUGGUCUCAUAUUGUGUCAACAGAGGAUUGAGCAUCA
B7: chr16:68260615:68260616:+_ENSG00000072736_ENST00000346183|hu_mus|motif|central (ssRNA)
RNA: GGGAGUUCUACAGUCCGACGAUCUCUGAGAUAGAGCCUGCUGCAUUCACACUCAAAGCACCCAUCAUAUAAAAGUAUCCGGUUUAAAUAUAUAUAUAUAUAUAUAUAUAUAUAUAUAAAAGCAAAGCUCGUUUCCCACAGCUGCAACAGAGGAUUGAGCAUCA
B8: chr12:89993059:89993060:-_ENSG00000070961_ENST00000261173|hu_hu|FALSE|FALSE (ssRNA)
RNA: GGGAGUUCUACAGUCCGACGAUCAGGUAUUUCUUCCUUUUGUGUUCCAUGACCAGCUUCUUUGAGGAAUUUUAAACGGCUAGUUGGAAUUGUUGAAAUAAGCUGGCCCCAGAGUAAUGUUCCCAUUCCUAGGAAUAUUGACCACAACAGAGGAUUGAGCAUCA
B9: chrX:71482573:71482574:-_ENSMUSG00000031328_ENSMUST00000144429|mus_mus|FALSE|FALSE (ssRNA)
RNA: GGGAGUUCUACAGUCCGACGAUCCUCCCACUGAAAAUGGACUCUUGGGGAUGUGAUCUCCUCCAUAAGUGACAUUGACACCUACUGGGCCCUGCUGCACAGGAAUGUACUUGACUGUGUAGGUAUUAUCAUGGUGGUCAAUGACAACAGAGGAUUGAGCAUCA
B10: chr1:225611761:225611762:-_ENSG00000143815_ENST00000272163|hu_mus|hu_hu_hu_mus_True|18_48 (ssRNA)
RNA: GGGAGUUCUACAGUCCGACGAUCCCAGGCCAUCGGCCUCUGACCACUUCACCCUCAACAAACUUCCUACUUGGCAUUUUCUAAAAUUAACCUGCGCGCGCUCCGGCGGGAACUCCAGACGGCUCCCGACAGUCACCAGCAGCCCAACAGAGGAUUGAGCAUCA
B11: chr12:121221538:121221539:-_ENSG00000157837_ENST00000353487|hu_mus|motif|central (ssRNA)
RNA: GGGAGUUCUACAGUCCGACGAUCGAGGUGAGCAGGGCCUUGUUAAAUACUGGCACAUCGGGAGAAGAAGAAAAGCAAAAGCGGUUGUUGCAAGAACUGCUGUACAUAUUGUGAAAACGACUUGAACUGAAUCAAAGAAGAAGACAACAGAGGAUUGAGCAUCA
B12: chr7:149068622:149068623:-_ENSMUSG00000025139_ENSMUST00000001950|mus_hu|mus_mus_mus_hu_False|48_98 (ssRNA)
RNA: GGGAGUUCUACAGUCCGACGAUCGUGAGGCCUCUGAGUGAGGUUCCUGGUCUGUCCUGGGUUAGAGUUGUUAAUAUCACGGAACAUACCACUUAAGACGUUCCAGUCCCGCCUGACACCUUCAUUCCCAAUGGAGAAGAAAUCCAACAGAGGAUUGAGCAUCA
B13: chr7:141445308:141445309:+_ENSG00000106028_ENST00000265304|hu_hu|hu_hu_hu_mus_False|38_68 (ssRNA)
RNA: GGGAGUUCUACAGUCCGACGAUCUAUGAUUGUUGUUGCUUGCCGCCUCACAUUGUUUUUAUCCAUGUAUUCACCAUAGUCCACUUUCCCUUCCACAUAAAUUCGAGCCCCCUUUUUCACAUACUGAUAUGCCACAUCUCUGAGCAACAGAGGAUUGAGCAUCA
B14: chr12:105536279:105536280:+_ENSG00000136051_ENST00000332180|hu_mus|hu_hu_hu_mus_True|1_78 (ssRNA)
RNA: GGGAGUUCUACAGUCCGACGAUCAGCACUGAACAUGUAAUGUAAUCUGGCUGCAUCAACAGCAUUUUCAUAUACAUCAUCUAAAUAAAUCGGGAAGACAGCGCGAUGCCAGUAUAAAAAACAGCAGUCACACUGUGUUUGGACCAACAGAGGAUUGAGCAUCA

In the test the target is T1, UNK ZnF1-3 (human, UniProt Q9C0B0 31-174).
T1 sequence: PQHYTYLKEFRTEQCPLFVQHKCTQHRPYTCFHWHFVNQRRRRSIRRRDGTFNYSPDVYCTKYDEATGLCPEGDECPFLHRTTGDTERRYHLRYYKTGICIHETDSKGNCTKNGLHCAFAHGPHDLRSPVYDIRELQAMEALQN
In words: nsRBNS (natural sequence RNA bind-n-seq); RBNS binding buffer (assumed for nsRBNS): 25 mM Tris pH 7.5, 150 mM KCl, 3 mM MgCl2, 0.01% Triton X-100, 500 ug/ml BSA, 20 U/ml SUPERase-In, 4 C; UNK is unkempt and MSI1 is Musashi-1; names of the RNAs are library labels; protein concentration not given here; high values mean tight binding.
B1 returned a binding signal of 2.23 enrichment R.
On to B2, for which the binding signal was found to be 0.921 enrichment R.
The value for B3 was 1.69 enrichment R; that for B4 was 0.761 enrichment R.
The same measure for B5: 0.244 enrichment R; for B6: 0.731 enrichment R.
The value for B7 was 1.08 enrichment R; that for B8 was 0.72 enrichment R; that for B9 was 0.766 enrichment R.
For B10, the binding signal came out at 1.38 enrichment R.
In turn, B11 returned a binding signal of 2.68 enrichment R.
B12 came in with a binding signal of 0.72 enrichment R.
Consider B13, for which the binding signal came out at 0.685 enrichment R.
B14 yielded a binding signal of 2.3 enrichment R.
